Data: the supplement of paper PMC3334620
The full ranking holds about 33,000 sequences; the median of “E-score (-0.5 to 0.5)” is about -0.011, and the highest 2% start at about 0.28. This is one part of the list.

Each sequence was assayed against T1, Gcr1 (UniProt P07261) (assay: PBM E-score (8-mer binding enrichment) (E-score (-0.5 to 0.5)); higher = stronger / more preferred TF binding; most listed sequences are background and not binding sites). Settings: protein concentration: 100 nM; construct: GST-full length.
T1 sequence: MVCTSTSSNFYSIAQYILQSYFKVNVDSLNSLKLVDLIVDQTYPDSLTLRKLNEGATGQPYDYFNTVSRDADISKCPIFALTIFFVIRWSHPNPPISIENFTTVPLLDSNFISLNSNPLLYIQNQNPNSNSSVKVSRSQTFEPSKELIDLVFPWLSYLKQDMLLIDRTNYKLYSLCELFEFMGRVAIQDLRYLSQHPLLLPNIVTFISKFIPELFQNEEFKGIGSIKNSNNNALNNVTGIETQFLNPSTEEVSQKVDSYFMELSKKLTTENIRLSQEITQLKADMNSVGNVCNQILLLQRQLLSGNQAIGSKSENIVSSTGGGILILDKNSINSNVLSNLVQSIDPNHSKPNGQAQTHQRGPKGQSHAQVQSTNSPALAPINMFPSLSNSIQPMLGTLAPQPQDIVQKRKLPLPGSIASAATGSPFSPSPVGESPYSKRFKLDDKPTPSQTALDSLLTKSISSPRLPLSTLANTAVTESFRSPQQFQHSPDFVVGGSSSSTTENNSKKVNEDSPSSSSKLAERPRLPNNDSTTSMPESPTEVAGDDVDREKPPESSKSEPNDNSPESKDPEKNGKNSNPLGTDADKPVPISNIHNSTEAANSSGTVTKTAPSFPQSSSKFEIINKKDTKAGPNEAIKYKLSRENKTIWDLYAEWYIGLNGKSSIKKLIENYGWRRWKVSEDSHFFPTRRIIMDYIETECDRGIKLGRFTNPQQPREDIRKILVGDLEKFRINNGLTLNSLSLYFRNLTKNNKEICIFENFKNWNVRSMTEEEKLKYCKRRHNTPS
Procedure, shortened: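 Yeast transcription factors, full-length or as DNA-binding domains, were expressed with a GST tag using PURExpress in vitro transcription/translation. At about 100-200 nM they were applied to universal all-10-mer Agilent arrays, double-stranded by primer extension on fresh or once-stripped slides. Fluorescent anti-GST detected bound protein, and masliner normalised the scans. E-scores for ungapped eight-base words, pooled with reverse complements, came from the Universal PBM Analysis Suite.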

Sequence	PBM E-score
CACTCTTC	-0.104
CAGCCCCG	-0.107
CCATAGCC	-0.216
CCGGCCGA	-0.282
TAGCGTCA	-0.0764
CGCCATTA	0.0561
CTGCAAAC	-0.103
CAGCAAGA	-0.0717
AATCGCTG	-0.119
CGAATGTA	-0.0414
AATCCCCC	-0.052
GCGGCAAA	0.0284
ATGTAATC	0.0608
CCGTCTTA	-0.0255
GACTTGAC	-0.229
AATGAAGC	-0.0835
CCCTGTCC	-0.206
ACCGCTTA	-0.145
TAGGAAAA	-0.0363
CTCCTAAA	0.147
CAATATTA	0.229
AAGCTCGG	0.0128
AGGCGGAG	-0.046
AGTCGGCA	0.00966
GCGCAGCC	0.292

Sequence	PBM E-score
ATTGTTCC	-0.103
AGAGATTG	-0.0488
AGAGCTGA	-0.0426
AAGAAGCT	0.386
ATGCTTAG	-0.209
AACAAGCG	0.0654
TACCGAAA	0.184
CCTTACAC	-0.163
TACACAGA	-0.106
CAATGTCG	0.0643
AATGAGTC	-0.117
AGCGCCTG	0.0396
GACCATTA	0.0843
ACTTACAC	0.0704
CTTAGCGA	-0.157
GCGTTGCC	-0.16
AGACTACT	0.0822
ACAAATGA	-0.0167
CGAGCCGC	0.0292
ATCCTAAC	0.0385
AGGTAAGG	-0.0333
CATAGGGG	-0.0724
GCCGACCA	0.0427
GGACGCCA	0.418
AGGATTAA	-0.105

Sequence	PBM E-score
ATGGTCAG	0.1
TATGAAAA	0.131
GAACTGGA	0.303
CGCGTGAA	0.179
GGAGCTAA	-0.0417
AACATGGT	-0.175
TGAGCTAA	0.023
AGAGACAA	-0.00305
GATAGGCA	0.0323
CAAACTCC	-0.012
CCAGCGTC	0.314
CACTCATC	-0.253
CGCGCCAC	-0.154
AGACCCAA	0.148
CAAAACCC	0.126
AGTAGCAA	0.111
GGTGAGTA	-0.174
AGCAGCGC	0.227
AGGACTTC	0.0819
AAACAAGA	0.111
AGACCACG	-0.199
GTGGAAAA	0.0634
GTGCGAAA	0.069
CTTACAAA	0.166
ACCGCCGA	-0.119

Sequence	PBM E-score
ACATGCCT	-0.253
TATTGTCA	-0.202
ATTCTGAG	0.0582
ATTTCACA	0.0194
GTCACTGA	-0.0786
CATCTTCG	-0.156
AGATCTGG	0.00449
AATTCCGA	0.142
AGAGATTC	0.0299
GGCAACAA	0.0878
TAGTTATA	0.0439
ACACGAAA	-0.131
GTCAATTA	0.0261
ACGGTGCG	-0.0609
CGCGATCC	0.138
GACAATGC	-0.145
GAGATCCA	0.174
CCCCGTAC	-0.138
GGCTGCCA	0.418
AACGGAGC	-0.0347
CAGATGTC	0.0248
ACTCCCGG	0.0498
CACACGTC	-0.056
AAGTCACT	-0.0575
AAGATCTC	-0.189

Sequence	PBM E-score
GGGAACAC	-0.0854
AATACTAG	0.163
CGACCAAC	0.00092
ACGGGGCC	0.149
CTCGATCC	-0.217
CTTTAAGC	-0.153
CTCTACCC	0.0307
ATGACAGC	-0.13
GAGGAAGC	0.391
CCTCCCTA	0.0566
CTCAGCTC	-0.0488
GATGGAGA	-0.0403
AACCAACG	-0.019
TATTTCGA	0.192
GGTGGTAC	-0.114
AGACACCG	-0.0705
ACCCATGC	-0.0954
TCATCAGA	0.0269
CCAGTCAC	0.0584
CTGCGGCA	-0.0514
CGTTACCC	-0.133
AACCGCCA	0.0527
GAAATAGC	0.107
TGATCAAA	-0.0622
ATAGTAAA	-0.0491

Sequence	PBM E-score
CAACCCGG	-0.0256
CCGTCGGC	-0.216
AGCGAGCC	-0.13
AGAGAGTC	-0.195
ACCCAAGA	0.197
GACGTACA	-0.135
GTTTCAGA	0.116
AGCTCTGG	-0.0058
AAAATGTC	-0.00676
CGCGCACA	0.126
ATGGTTCC	0.0654
CAATGGTG	-0.0818
CAACTTGC	-0.019
GTGGGAGA	0.0205
CGACCGAG	-0.129
CATCGAGA	0.0824
AAAATTGC	-0.203
CTCAGAAG	0.0485
CATAACAA	0.0427
ACGGGTGG	-0.0399
AGACCGCT	-0.2
CCACCTAA	0.124
ATGCTAAC	0.139
ACTCCGAC	-0.0804
CCTGGACC	0.0352

Sequence	PBM E-score
ACCCCACG	-0.00578
ATCGGAAC	0.0188
GCGCTAAC	-0.00259
CAGGCAAA	-0.0259
AAGTCGCC	0.226
GTGGGCAA	-0.153
AACTTGGC	0.111
AGCCTGAA	-0.042
ATGCTCGC	0.0405
CTAACTAA	0.0648
AAATCCCC	0.0704
CCAGAGCG	-0.144
ACGTCTAC	0.0685
GACGCATA	0.141
ACCATTGG	-0.0371
ACTCCCTC	0.0192
ACTGACGG	-0.252
ACCCCGAG	-0.00642
CGGGAACG	-0.0928
AGTCCTCG	-0.0287
AGGCCTGC	-0.299
GGAGCGGA	0.187
AAGTGTGG	0.0185
ATCACACA	0.00682
CATCGACA	-0.041

Sequence	PBM E-score
CATGAATA	0.0347
ACACACTC	0.0505
AACGCCTA	-0.0917
GGAGAGTA	-0.163
TCTTAGAA	0.153
CACTTATA	0.0692
CTGCCAGC	-0.0221
CCAGAGTA	0.138
ACTGCAAG	-0.185
ACACACTG	-0.135
CGACTTCA	-0.00578
ACAATACG	0.0013
ACTTTTGA	0.142
ACCATCGC	-0.0758
AGAAGCAA	-0.0109
AACCGCTC	-0.0603
AGAGATCG	-0.261
CACAAGTA	0.038
CCCAACCG	-0.059
AGGATTGG	-0.0356
ACGTGTCT	-0.00617
CCGAGGAA	0.153
CATGTAAG	-0.0563
CTAAGGCC	0.046
AATCCACT	0.184

Sequence	PBM E-score
GCCTCGCA	-0.223
AAAAGAGA	0.0417
AATTATAC	0.155
AGACAACG	-0.134
CGGATGAG	-0.0805
ACGGTAGA	0.138
ATGCCGGG	0.106
ACTTTGCG	-0.0698
ATGAGCAG	-0.0902
ACCATCCG	-0.0358
TCAGCTGA	-0.106
ACCCATCG	0.022
CCTACACA	-0.0978
CCAAATTA	0.138
AAACCGAA	-0.116
CCCTAACG	-0.0412
CCACTTTA	0.248
GCGTGTTA	-0.0448
AACATCCG	0.164
AACTTTGC	-0.0423
CGAGTTTA	0.0307
GTTGCTTA	0.148
ACAGTGCA	-0.143
CACGGATA	-0.0209
ACTTCATA	0.0583

Sequence	PBM E-score
AATAGCCG	-0.0191
CATTGTTC	-0.0803
GCTATTGA	-0.21
AAAGTGCC	-0.104
CAATGACC	-0.309
GCGTGATA	-0.115
CTGAGGTA	0.0147
ACACATAT	0.111
CACTAAGG	0.241
AGCGCAAC	-0.124
CACTTCAC	-0.143
CGGATTGC	-0.182
AAGTCAAG	-0.129
CTTTGAAC	-0.101
TCAAACAA	0.0125
ATGTTCTG	0.0622
CCATTCCG	-0.0365
CAGTCTGA	-0.112
ATTCTCCC	-0.0216
GGACCTCC	0.00641
GCATTAGC	0.00604
CGGTCGAA	-0.188
ATTAAGAA	0.21
ATCCAGAA	0.267
GAGAAATA	0.00474

Sequence	PBM E-score
AATAAGGC	-0.0902
GGGTACCA	0.204
ATCGCCTA	0.0205
ACAGAGTA	-0.133
TACCTTAA	0.177
GACTATAC	-0.0161
ACGTTTTA	-0.00281
CCGTATAA	0.195
CCGGGGGC	-0.0705
ACAGAGCT	-0.297
CAGTCAGA	0.0802
AAATCGTT	-0.0365
CCAGGCAG	-0.124
CCCTGCCA	0.0623
CCCGTTTA	0.271
CACCCCAA	0.0963
ACAAATAG	-0.0199
CTTGCCAC	-0.257
GTTGGGCA	-0.0428
AGTGCTTA	-0.117
AGTGGGCC	-0.0804
GGTCTATA	-0.00313
AATACACT	0.106
GCCTTTAC	-0.0514
GGTATTGA	-0.199

Sequence	PBM E-score
AAGTAGGT	0.00396
ATGCGGGA	0.212
CTCCTATC	-0.016
ATTTTAAA	0.182
GTGTAAAA	-0.115
ACCTTCTG	0.102
ATGAGCCG	-0.116
GAGTTCCC	-0.0372
AGAGTATA	-0.202
AGACTTTC	-0.156
CTATCTCA	-0.0521
AAACCCCC	-0.23
ACATAATC	-0.0277
CAAGCTTG	0.0375
ATGCCCTG	-0.127
GATGCGTA	0.135
CAGTTCTC	-0.123
AGAGGAAT	0.135
GTAAGGTA	0.157
GCGCCGCC	0.224
ATTCTACG	-0.194
GTGTACTA	-0.0173
GTCGGAAA	0.0896
AATACGGG	0.121
CGCCCGTC	-0.0567

Sequence	PBM E-score
AAGACCTA	0.0634
ACAGCGCC	-0.0264
ACAGGTCA	-0.111
CTCGGGTA	0.135
AATTTCAT	0.0846
CGGGACCA	0.00102
CATTTGAG	0.0479
CACTGCTG	-0.0169
ATTCCCCG	-0.0914
GCTGTCGA	-0.192
CCCTATCC	-0.173
CACTTACA	-0.158
AAAGAAAT	0.132
GGGGCTCA	-0.0765
AAAAAGCG	0.117
ACCGACAA	0.0337
CTGAGTGA	0.178
AGTAGATC	0.0883
AAGTCCCA	-0.2
AATATTCA	-0.131
CAACAGTA	0.0711
AAAGTTCC	0.074
CACAAATC	0.145
CATTGGTC	-0.113
GGGGTGGA	-0.229

Sequence	PBM E-score
AACGAAAG	0.0045
GTTTTCGA	-0.00716
CGTGAGCC	-0.101
CAGTTCGG	0.0773
ATGTGTCG	-0.015
CACCTCTC	-0.241
CTAAGATA	0.0423
AGTTTATG	0.104
GAGCCGGC	-0.0542
TCATGAAA	0.0894
TGTGTGAA	-0.0238
AGGTGGCG	-0.00306
ACCTTGGG	-0.13
ATCAATTA	0.174
ACTTTCCG	-0.134
AGCAATAC	0.0924
AATCTTAT	0.00527
AACATGTA	0.101
ACTTGAGA	-0.00095
